The compounds below were run on endogenous HIV-1 from HAART-treated patients with undetectable viremia. Conditions: PBMCs from HAART-treated patients; 1, 3 and 7 days (Fig. 6c).
Type: cell-based

Compound | viral propagation of tritherapy-selected viruses ex vivo
Nc1ncnc2c1ncn2[C@@H](C=O)O[C@@H](C=O)COP(=O)(O)OP(=O)(O)OP(=O)(O)O [OxATP, oxidized ATP] | reduces viral propagation
Cc1nc(N=Nc2ccc(S(=O)(=O)O)cc2S(=O)(=O)O)c(COP(=O)(O)O)c(C=O)c1O [PPADS] | reduces viral propagation
Cc1ccc(C(=O)Nc2ccc(S(=O)(=O)O)c3cc(S(=O)(=O)O)cc(S(=O)(=O)O)c23)cc1NC(=O)c1cccc(NC(=O)Nc2cccc(C(=O)Nc3cc(C(=O)Nc4ccc(S(=O)(=O)O)c5cc(S(=O)(=O)O)cc(S(=O)(=O)O)c45)ccc3C)c2)c1 [suramin] | reduces viral propagation

From US20130156791A1, “METHODS AND PHARMACEUTICAL COMPOSITIONS FOR THE TREATMENT OF HIV-1 INFECTIONS” (priority 2010, published 2013)
